# Measured values reported in ChEMBL document CHEMBL1961873, “Compounds: GSK PKIS; Assays: Nanosyn kinase panel” (2012).
# For some assays here: Most of the strong results are listed elsewhere, so they are rarer here than in the full data. The list shows a part of the results, in another mix than the full data.
# Legend:
# [1] = target: T1, Inhibitor of nuclear factor kappa-B kinase subunit epsilon (Homo sapiens) (UniProt Q14164); details: at 1 µM;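 note: reported values are averaged percent inhibition figures against human IKKε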
# T1 sequence (whole entry): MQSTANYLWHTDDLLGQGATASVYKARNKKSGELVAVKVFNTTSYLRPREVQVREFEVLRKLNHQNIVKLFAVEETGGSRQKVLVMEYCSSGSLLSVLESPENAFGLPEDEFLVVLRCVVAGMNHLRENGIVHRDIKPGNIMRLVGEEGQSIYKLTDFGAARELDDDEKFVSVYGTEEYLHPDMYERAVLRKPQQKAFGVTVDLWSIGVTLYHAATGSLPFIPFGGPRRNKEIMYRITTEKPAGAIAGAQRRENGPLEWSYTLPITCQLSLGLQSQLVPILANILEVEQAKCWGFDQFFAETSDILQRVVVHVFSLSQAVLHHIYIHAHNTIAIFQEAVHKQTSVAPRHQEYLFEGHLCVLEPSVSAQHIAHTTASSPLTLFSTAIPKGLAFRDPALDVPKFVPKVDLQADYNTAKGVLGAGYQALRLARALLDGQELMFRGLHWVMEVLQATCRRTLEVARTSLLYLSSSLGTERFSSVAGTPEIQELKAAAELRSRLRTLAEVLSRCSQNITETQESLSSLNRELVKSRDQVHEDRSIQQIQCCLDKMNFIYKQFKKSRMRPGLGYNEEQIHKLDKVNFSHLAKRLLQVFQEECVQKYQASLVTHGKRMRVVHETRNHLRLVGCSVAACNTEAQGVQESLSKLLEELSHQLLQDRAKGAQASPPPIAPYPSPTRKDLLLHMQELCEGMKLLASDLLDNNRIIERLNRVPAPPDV
# [2] = target: T2, Serine/threonine-protein kinase Nek1 (Homo sapiens) (UniProt Q96PY6); details: at 0.1 µM
# T2 sequence (whole entry): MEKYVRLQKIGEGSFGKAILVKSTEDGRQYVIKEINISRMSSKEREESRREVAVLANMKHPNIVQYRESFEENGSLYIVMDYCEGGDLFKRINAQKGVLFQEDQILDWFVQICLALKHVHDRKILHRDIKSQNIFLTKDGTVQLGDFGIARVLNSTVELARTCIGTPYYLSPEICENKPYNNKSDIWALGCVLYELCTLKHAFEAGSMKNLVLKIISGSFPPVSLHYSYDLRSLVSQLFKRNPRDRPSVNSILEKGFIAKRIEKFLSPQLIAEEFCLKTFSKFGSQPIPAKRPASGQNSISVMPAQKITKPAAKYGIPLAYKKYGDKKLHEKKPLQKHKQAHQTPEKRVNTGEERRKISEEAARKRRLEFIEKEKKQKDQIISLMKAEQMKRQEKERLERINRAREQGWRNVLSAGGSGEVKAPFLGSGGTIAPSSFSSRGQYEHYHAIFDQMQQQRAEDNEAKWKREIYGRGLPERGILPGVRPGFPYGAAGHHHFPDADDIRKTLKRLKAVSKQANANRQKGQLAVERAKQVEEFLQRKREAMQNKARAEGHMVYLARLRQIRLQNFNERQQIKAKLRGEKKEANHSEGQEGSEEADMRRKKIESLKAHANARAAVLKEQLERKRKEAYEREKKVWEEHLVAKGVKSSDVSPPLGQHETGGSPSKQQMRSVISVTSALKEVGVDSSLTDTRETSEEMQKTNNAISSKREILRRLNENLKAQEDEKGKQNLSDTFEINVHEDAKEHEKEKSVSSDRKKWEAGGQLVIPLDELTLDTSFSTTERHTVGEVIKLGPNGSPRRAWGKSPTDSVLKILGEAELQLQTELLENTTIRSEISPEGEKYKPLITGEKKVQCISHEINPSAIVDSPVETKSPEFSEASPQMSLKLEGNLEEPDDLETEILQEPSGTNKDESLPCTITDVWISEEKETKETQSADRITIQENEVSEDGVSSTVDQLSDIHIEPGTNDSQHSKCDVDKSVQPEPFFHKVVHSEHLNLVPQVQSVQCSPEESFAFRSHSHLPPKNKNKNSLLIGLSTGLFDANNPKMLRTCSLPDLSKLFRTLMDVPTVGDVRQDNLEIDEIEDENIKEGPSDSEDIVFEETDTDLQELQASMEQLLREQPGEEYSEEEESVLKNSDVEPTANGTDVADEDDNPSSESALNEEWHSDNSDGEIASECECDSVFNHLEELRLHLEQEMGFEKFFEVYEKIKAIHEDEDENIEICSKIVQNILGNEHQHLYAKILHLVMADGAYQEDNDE
# [3] = target: T2, Serine/threonine-protein kinase Nek1 (Homo sapiens); details: at 1 µM
# [4] = target: T3, Serine/threonine-protein kinase Nek2 (Homo sapiens) (UniProt P51955); details: at 0.1 µM
# T3 sequence (whole entry): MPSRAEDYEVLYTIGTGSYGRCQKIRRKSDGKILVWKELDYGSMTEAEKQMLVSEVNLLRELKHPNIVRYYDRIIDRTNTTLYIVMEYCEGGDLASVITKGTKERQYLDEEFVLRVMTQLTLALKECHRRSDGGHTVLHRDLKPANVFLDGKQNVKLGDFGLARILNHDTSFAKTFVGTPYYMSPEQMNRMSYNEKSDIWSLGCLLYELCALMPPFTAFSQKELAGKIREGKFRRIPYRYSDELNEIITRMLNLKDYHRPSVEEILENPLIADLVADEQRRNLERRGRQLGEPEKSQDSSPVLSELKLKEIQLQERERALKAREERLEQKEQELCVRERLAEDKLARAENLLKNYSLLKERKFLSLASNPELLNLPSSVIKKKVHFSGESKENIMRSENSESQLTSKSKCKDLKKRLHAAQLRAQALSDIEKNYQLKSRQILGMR
# [5] = target: T3, Serine/threonine-protein kinase Nek2 (Homo sapiens); details: at 1 µM
# [6] = target: T4, Serine/threonine-protein kinase Nek6 (Homo sapiens) (UniProt Q9HC98); details: at 0.1 µM
# T4 sequence (whole entry): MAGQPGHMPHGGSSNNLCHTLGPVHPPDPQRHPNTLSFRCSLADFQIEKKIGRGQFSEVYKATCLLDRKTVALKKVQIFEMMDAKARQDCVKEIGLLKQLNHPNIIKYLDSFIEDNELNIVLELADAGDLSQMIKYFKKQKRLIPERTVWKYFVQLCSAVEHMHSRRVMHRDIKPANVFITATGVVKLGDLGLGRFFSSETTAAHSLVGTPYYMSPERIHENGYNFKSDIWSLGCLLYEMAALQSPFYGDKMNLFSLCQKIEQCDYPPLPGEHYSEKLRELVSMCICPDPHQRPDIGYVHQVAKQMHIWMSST
# [7] = target: T4, Serine/threonine-protein kinase Nek6 (Homo sapiens); details: at 1 µM
# [8] = target: Serine/threonine-protein kinase Nek7 (Homo sapiens) (UniProt Q8TDX7); details: at 0.1 µM
# [9] = target: Serine/threonine-protein kinase Nek7 (Homo sapiens) (UniProt Q8TDX7); details: at 1 µM
# [10] = target: T5, Serine/threonine-protein kinase Nek9 (Homo sapiens) (UniProt Q8TD19); details: at 0.1 µM
# T5 sequence (whole entry): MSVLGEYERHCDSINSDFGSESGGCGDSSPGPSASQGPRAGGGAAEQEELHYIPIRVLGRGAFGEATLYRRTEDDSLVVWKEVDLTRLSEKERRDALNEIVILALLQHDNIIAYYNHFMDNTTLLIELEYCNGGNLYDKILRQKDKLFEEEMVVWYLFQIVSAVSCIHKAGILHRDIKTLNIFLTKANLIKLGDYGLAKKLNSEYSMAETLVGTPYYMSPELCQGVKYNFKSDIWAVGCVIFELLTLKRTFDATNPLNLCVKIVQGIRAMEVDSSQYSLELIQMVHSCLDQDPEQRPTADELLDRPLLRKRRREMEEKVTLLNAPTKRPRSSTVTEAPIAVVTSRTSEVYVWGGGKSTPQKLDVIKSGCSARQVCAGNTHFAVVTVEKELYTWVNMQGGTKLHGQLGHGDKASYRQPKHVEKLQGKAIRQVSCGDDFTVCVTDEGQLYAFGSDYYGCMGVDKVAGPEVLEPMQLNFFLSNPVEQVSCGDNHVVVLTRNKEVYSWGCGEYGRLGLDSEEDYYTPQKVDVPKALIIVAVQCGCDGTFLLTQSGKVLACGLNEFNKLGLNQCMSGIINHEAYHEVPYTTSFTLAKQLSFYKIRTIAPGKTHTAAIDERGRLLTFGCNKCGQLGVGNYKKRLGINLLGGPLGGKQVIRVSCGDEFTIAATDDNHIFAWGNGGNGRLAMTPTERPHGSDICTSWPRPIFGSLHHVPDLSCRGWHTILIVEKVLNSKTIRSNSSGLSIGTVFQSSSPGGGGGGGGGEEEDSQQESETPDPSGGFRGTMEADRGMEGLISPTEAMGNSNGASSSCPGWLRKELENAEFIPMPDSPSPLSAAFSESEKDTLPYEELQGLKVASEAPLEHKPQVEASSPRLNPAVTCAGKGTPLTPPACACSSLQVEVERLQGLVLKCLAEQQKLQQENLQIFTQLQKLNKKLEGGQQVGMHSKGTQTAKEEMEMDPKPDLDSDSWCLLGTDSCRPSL
# [11] = target: T5, Serine/threonine-protein kinase Nek9 (Homo sapiens); details: at 1 µM
# [12] = target: Serine/threonine-protein kinase PLK1 (Homo sapiens) (UniProt P53350); details: at 0.1 µM
# [13] = target: Serine/threonine-protein kinase PLK1 (Homo sapiens) (UniProt P53350); details: at 1 µM
# [14] = target: T6, Dual specificity protein kinase TTK (Homo sapiens) (UniProt P33981); details: at 0.1 µM
# T6 sequence (whole entry): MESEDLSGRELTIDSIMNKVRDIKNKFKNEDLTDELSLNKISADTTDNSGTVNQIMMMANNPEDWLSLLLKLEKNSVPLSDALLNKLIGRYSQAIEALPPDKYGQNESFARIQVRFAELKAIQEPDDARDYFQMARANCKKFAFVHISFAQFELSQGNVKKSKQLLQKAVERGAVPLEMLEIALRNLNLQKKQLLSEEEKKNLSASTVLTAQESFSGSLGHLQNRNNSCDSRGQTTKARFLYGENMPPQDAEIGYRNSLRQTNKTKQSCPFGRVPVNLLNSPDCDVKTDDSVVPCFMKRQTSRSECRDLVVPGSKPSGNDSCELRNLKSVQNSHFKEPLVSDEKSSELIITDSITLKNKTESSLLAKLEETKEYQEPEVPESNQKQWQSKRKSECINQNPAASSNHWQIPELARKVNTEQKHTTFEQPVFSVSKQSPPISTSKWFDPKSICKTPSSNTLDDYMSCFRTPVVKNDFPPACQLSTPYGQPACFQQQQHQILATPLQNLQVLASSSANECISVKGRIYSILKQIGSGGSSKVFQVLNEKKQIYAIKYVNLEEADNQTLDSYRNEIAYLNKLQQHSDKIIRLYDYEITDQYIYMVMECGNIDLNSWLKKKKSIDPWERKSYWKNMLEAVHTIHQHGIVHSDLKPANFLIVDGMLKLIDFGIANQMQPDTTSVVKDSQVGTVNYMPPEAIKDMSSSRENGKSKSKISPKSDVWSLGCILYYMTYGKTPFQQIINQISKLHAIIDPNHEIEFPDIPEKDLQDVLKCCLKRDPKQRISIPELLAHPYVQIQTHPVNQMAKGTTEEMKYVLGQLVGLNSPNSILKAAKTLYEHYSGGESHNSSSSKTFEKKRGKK
# [15] = tested on: T7, Receptor-type tyrosine-protein kinase FLT3 (Homo sapiens), P36888 [D835Y]; details: at 1 µM
# T7 sequence (whole entry): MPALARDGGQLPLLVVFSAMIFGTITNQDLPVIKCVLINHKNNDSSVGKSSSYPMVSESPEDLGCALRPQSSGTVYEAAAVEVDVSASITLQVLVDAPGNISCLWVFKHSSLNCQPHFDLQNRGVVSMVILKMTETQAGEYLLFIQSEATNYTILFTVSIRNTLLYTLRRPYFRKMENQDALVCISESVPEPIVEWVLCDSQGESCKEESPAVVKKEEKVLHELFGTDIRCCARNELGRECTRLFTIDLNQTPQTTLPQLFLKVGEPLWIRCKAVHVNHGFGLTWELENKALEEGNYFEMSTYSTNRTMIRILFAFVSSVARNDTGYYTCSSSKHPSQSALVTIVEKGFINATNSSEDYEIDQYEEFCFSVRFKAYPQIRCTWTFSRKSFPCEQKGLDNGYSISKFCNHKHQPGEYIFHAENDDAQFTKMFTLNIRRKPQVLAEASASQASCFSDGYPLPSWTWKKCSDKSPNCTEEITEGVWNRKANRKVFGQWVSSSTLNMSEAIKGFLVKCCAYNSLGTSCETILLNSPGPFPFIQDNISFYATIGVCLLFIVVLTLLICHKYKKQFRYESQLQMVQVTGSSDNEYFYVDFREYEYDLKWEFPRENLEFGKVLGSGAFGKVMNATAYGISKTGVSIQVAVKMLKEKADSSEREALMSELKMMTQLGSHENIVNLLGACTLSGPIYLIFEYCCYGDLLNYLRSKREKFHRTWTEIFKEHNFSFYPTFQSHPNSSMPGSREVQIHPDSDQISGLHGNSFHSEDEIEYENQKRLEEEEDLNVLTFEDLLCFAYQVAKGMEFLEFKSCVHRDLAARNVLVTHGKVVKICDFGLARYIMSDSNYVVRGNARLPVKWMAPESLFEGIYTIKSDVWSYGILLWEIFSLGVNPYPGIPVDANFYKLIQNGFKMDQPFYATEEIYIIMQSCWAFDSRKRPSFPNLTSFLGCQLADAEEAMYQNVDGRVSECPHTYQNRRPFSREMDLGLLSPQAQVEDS
# [16] = target: Vascular endothelial growth factor receptor 3 (Homo sapiens) (UniProt P35916); details: at 0.1 µM
# [17] = target: Vascular endothelial growth factor receptor 3 (Homo sapiens) (UniProt P35916); details: at 1 µM
# [18] = target: Macrophage colony-stimulating factor 1 receptor (Homo sapiens) (UniProt P07333); details: at 0.1 µM
# [19] = target: Macrophage colony-stimulating factor 1 receptor (Homo sapiens) (UniProt P07333); details: at 1 µM
# [20] = target: Tyrosine-protein kinase Fyn (Homo sapiens) (UniProt P06241); details: at 0.1 µM
# Sequence of UniProt P06241 (P06241 whole entry, looked up): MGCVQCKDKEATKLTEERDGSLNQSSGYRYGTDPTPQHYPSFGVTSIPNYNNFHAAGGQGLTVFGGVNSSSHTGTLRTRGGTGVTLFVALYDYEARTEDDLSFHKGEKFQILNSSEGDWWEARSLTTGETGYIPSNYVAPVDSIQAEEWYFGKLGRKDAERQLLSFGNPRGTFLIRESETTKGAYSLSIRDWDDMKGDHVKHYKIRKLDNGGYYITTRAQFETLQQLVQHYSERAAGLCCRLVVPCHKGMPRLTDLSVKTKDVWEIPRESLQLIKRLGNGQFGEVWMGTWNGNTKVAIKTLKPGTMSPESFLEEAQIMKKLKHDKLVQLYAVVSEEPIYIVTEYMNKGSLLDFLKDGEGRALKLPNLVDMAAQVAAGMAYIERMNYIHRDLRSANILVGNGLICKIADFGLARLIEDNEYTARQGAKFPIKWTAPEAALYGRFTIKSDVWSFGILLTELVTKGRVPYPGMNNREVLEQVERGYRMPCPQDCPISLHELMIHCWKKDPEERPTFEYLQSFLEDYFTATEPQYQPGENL
# Sequence of UniProt P07333 (P07333 whole entry): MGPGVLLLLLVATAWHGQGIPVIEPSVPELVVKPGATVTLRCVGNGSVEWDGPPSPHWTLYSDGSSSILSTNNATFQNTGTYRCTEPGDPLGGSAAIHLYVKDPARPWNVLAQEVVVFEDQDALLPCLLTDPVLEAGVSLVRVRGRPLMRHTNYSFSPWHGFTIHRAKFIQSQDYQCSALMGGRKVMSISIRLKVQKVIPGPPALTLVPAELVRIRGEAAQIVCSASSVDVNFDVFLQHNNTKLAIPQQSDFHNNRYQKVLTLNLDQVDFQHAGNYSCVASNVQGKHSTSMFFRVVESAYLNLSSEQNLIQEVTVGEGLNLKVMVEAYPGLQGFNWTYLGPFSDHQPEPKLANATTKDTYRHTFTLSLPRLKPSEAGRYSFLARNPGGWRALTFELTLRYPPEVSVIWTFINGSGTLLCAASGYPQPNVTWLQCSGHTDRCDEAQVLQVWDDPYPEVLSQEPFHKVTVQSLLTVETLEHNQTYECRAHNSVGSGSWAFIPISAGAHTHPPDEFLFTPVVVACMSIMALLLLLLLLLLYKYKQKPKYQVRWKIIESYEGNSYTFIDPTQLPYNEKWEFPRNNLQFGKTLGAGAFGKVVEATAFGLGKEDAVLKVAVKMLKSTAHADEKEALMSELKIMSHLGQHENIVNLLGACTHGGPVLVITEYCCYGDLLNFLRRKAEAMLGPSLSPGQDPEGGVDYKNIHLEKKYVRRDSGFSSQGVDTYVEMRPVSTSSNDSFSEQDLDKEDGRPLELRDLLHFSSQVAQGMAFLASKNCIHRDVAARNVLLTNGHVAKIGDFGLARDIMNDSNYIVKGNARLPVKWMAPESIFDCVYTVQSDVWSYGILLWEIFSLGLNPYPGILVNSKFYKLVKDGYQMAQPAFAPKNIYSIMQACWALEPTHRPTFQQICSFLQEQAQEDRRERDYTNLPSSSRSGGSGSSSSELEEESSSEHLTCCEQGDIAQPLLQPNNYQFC
# Sequence of UniProt P35916 (P35916 whole entry): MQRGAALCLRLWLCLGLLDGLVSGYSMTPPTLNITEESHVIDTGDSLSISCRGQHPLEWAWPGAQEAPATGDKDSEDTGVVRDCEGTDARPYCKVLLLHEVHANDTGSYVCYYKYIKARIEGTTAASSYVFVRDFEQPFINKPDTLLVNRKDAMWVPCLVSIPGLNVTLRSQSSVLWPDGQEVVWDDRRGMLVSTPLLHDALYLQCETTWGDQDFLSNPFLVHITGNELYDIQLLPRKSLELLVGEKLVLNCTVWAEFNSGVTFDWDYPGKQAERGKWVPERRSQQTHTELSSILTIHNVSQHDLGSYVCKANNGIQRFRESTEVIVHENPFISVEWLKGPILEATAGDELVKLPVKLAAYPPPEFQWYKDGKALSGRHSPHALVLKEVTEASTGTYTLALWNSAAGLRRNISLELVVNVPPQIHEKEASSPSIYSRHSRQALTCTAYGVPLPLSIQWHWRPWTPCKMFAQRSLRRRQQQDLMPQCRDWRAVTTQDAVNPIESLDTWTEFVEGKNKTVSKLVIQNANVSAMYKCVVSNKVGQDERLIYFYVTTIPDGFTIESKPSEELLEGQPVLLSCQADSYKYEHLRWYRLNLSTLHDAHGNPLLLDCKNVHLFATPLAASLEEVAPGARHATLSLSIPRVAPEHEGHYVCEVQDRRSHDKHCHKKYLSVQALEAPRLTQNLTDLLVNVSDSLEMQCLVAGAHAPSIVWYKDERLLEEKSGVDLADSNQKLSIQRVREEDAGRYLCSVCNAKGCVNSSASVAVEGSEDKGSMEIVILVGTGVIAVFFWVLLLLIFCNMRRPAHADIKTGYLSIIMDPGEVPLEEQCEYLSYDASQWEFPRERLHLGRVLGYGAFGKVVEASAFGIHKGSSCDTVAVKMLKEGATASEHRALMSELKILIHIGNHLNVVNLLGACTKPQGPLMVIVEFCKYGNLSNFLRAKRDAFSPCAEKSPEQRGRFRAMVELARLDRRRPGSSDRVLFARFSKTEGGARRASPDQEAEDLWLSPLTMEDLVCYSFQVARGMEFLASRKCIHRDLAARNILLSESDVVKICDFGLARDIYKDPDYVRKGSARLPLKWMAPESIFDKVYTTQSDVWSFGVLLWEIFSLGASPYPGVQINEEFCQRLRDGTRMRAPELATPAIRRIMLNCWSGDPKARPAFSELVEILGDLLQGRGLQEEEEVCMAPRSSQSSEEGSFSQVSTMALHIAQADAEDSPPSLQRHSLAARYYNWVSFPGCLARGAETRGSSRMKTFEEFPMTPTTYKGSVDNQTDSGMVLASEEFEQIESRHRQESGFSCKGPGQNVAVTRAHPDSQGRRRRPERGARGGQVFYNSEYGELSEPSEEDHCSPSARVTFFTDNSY
# Sequence of UniProt P53350 (P53350 whole entry): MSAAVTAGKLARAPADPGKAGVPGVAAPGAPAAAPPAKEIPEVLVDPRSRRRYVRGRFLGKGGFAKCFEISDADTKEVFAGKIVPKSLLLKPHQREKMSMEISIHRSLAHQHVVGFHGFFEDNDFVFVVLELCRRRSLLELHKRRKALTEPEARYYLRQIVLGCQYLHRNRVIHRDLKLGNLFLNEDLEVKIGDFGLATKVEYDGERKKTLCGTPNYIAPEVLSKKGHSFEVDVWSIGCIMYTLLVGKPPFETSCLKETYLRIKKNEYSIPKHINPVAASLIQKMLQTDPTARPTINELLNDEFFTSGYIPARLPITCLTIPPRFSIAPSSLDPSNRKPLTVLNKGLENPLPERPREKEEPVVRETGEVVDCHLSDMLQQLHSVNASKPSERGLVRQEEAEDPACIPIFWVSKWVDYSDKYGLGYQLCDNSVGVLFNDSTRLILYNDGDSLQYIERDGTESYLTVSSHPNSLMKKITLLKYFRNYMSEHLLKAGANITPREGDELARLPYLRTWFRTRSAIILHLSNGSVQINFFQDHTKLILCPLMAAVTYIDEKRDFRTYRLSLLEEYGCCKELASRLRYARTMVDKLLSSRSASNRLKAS
# Sequence of UniProt Q8TDX7 (Q8TDX7 whole entry, looked up): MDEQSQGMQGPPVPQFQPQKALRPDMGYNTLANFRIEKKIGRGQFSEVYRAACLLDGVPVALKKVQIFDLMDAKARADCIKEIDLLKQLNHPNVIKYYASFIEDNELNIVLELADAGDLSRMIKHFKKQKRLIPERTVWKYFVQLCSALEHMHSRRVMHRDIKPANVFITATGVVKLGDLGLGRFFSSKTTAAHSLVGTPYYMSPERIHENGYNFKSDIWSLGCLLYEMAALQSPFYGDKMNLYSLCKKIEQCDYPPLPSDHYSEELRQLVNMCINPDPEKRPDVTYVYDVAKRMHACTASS
smiles,measurement,setting,value
Fc1ccc(-c2ncn(C3CCNCC3)c2-c2ccnc(Oc3ccc(Cl)cc3)n2)cc1,inhibition,[1],-0.24%
same,inhibition,[2],0.52%
same,inhibition,[3],1.21%
same,inhibition,[4],0.2%
same,inhibition,[5],1.4%
same,inhibition,[6],1.13%
same,inhibition,[7],3.17%
same,inhibition,[8],-0.19%
same,inhibition,[9],4.4%
same,inhibition,[10],3.96%
same,inhibition,[11],3.47%
same,inhibition,[12],2.53%
same,inhibition,[13],2.24%
same,inhibition,[14],3.26%
same,inhibition,[15],3.27%
same,inhibition,[16],0.25%
same,inhibition,[17],1.05%
same,inhibition,[18],-2.07%
same,inhibition,[19],0.01%
same,inhibition,[20],1.88%
